{"source": "the supplement of paper PMC9446081", "note": "About 220 (0.56%) of roughly 39,000 compounds showed activity. Some of the results follow.", "data": [{"system": "Escherichia coli K-12 BW25113", "assay": "relative growth (OD600 normalised to plate interquartile mean) (fraction); higher = less growth inhibition, active = 0.2 or less", "settings": "50 µM; LB; incubation time: overnight (16-24 h)", "values": [{"compound": "COC1C(O)C(C)OC(OC2CCC3(C)C4CCC5(C)C(C6=CC(=O)OC6)CCC5(O)C4CCC3(O)C2)C1O", "note": "(stereo not given);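 further: static incubation at 37 °C against the wild-type strain, values averaged over two biological replicates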", "relative growth": "inactive: 0.943"}, {"compound": "CNC(=O)Oc1ccc2c(c1)[C@]1(C)CCN(C)[C@@H]1N2C.CNC(=O)Oc1ccc2c(c1)[C@]1(C)CCN(C)[C@@H]1N2C.O=S(=O)(O)O", "relative growth": "inactive: 1.04"}, {"compound": "CCCN1CC(CSC)CC2c3cccc4[nH]cc(c34)CC21.CS(=O)(=O)O", "note": "(stereo not given)", "relative growth": "inactive: 1.15"}, {"compound": "COc1ccc2c(c1)C[C@H](N)C2", "relative growth": "inactive: 0.985"}, {"compound": "c1cc(N2CCNCC2)ccn1", "relative growth": "inactive: 1.02"}, {"compound": "O=c1[n-]c(=O)n(Cl)c(=O)n1Cl.[Na+]", "relative growth": "inactive: 1.11"}, {"compound": "CCOP(=S)(OCC)Oc1nc(Cl)c(Cl)cc1Cl", "relative growth": "inactive: 1.06"}, {"compound": "C[C@H]1C[C@@H](O)[C@]2(O)[C@@]13CC(=O)OC[C@@]2(C)[C@](C)(O)C(=O)C3", "relative growth": "inactive: 1.04"}, {"compound": "N[C@]1(C(=O)O)CC[C@@H](C(=O)O)C1", "relative growth": "inactive: 0.988"}, {"compound": "Cn1cc(N2C[C@@H]3CN(CCO)C[C@@H]3C2=O)cn1", "relative growth": "inactive: 0.991"}, {"compound": "COCCCNC(=O)[C@@]1(Cc2ccccc2N=[N+]=[N-])N=C(c2ccc(OCCCO)cc2)O[C@H]1c1ccccc1N=[N+]=[N-]", "relative growth": "inactive: 1.02"}, {"compound": "CCOCC(=O)N1CC[C@H]2CNC[C@H]21", "relative growth": "inactive: 0.983"}, {"compound": "COP(=S)(OC)Oc1ccc(Sc2ccc(OP(=S)(OC)OC)cc2)cc1", "relative growth": "inactive: 0.986"}, {"compound": "Cl.c1ccc2c(c1)OCC(C1=NCCN1)O2", "note": "(stereo not given)", "relative growth": "inactive: 0.936"}, {"compound": "N[C@H]1C[C@@H]1c1ccccc1", "relative growth": "inactive: 1.04"}, {"compound": "CCN(CC)CCOC(=O)C(O)(c1ccccc1)c1ccccc1.Cl", "relative growth": "inactive: 1.01"}, {"compound": "CO[C@H]1C[C@H](O[C@H]2CC[C@]3(C=O)[C@H]4CC[C@]5(C)[C@@H](C6=CC(=O)OC6)CC[C@]5(O)[C@@H]4CC[C@]3(O)C2)O[C@H](C)[C@H]1O", "relative growth": "inactive: 0.98"}, {"compound": "CCCCC[C@H]1C(=O)O[C@H](C)[C@H](NC(=O)c2cccc(NC=O)c2O)C(=O)O[C@@H](C)[C@@H]1OC(=O)CC(C)C", "relative growth": "inactive: 0.958"}, {"compound": "NCc1[nH]nc2cc(F)ccc12", "relative growth": "inactive: 0.99"}, {"compound": "O=C(O)C=CC(=O)O.c1ccc2nc(N3CCNCC3)ccc2c1", "relative growth": "inactive: 0.991"}, {"compound": "[NH2][Pt]1([NH2])[O]C(=O)C2(CCC2)C(=O)[O]1", "relative growth": "inactive: 0.958"}, {"compound": "C[C@@H]1CN([C@H](C)CO)C(=O)c2c(c3ccccc3n2C)-c2ccccc2CO[C@@H]1CN(C)C(=O)Oc1ccccc1", "relative growth": "inactive: 1.02"}, {"compound": "C=C(C)C1Cc2c(ccc3c2OC2COc4cc(OC)c(OC)cc4C2C3=O)O1", "note": "(stereo not given)", "relative growth": "inactive: 1.02"}, {"compound": "CCCCCCCCCCCCCCCC[n+]1ccccc1", "relative growth": "active: 0.16"}, {"compound": "COC(=O)C1CC(OC(C)=O)C(=O)C2C1(C)CCC1C(=O)OC(c3ccoc3)CC12C", "note": "(stereo not given)", "relative growth": "inactive: 1.02"}, {"compound": "CNC(=O)Oc1ccccc1OC(C)C", "relative growth": "inactive: 1.13"}, {"compound": "CCCC(=O)c1c(O)[nH]c(=O)[nH]c1=O", "relative growth": "inactive: 1.01"}, {"compound": "Oc1ccccc1-c1ccccc1", "relative growth": "inactive: 0.915"}, {"compound": "CN1[C@@H]2CC[C@@H]1C[C@H](O)C2", "note": "(stereo not given in full)", "relative growth": "inactive: 1.01"}, {"compound": "Cc1cccc(N2CCNCC2)n1", "relative growth": "inactive: 0.98"}, {"compound": "Cc1nnc(N2CCC[C@]3(CNCCO3)C2)o1", "relative growth": "inactive: 0.98"}, {"compound": "CC(=O)NC1CCSC1=O", "note": "(stereo not given)", "relative growth": "inactive: 0.982"}, {"compound": "CC(N)C(O)c1ccc(O)c(O)c1", "note": "(stereo not given)", "relative growth": "inactive: 1.05"}, {"compound": "O=C(NC(O)C(Cl)(Cl)Cl)NC(O)C(Cl)(Cl)Cl", "note": "(stereo not given)", "relative growth": "inactive: 1.21"}, {"compound": "CCN1C[C@]2(OC(=O)c3ccccc3NC(C)=O)CC[C@@H](OC)[C@@]34[C@H]5C[C@@H]6[C@@H](OC)C[C@](O)([C@@H](C[C@@H]23)[C@@H]14)[C@]5(O)[C@H]6OC", "relative growth": "inactive: 0.979"}, {"compound": "OCC(O)C1OC2OC(C(Cl)(Cl)Cl)OC2C1O", "note": "(stereo not given)", "relative growth": "inactive: 0.919"}, {"compound": "CN1C(=O)CCS(=O)(=O)C1c1ccc(Cl)cc1", "note": "(stereo not given)", "relative growth": "inactive: 0.979"}, {"compound": "CC(=O)OC1CC2C(C)(C)C(=O)C=CC2(C)C2CCC3(C)C(=CC(=O)OC3c3ccoc3)C12C", "note": "(stereo not given)", "relative growth": "inactive: 1.08"}, {"compound": "C=CCC1(O)CCC2C3CCC4=CC(=O)CCC4=C3C=CC21C", "note": "(stereo not given)", "relative growth": "inactive: 1.08"}, {"compound": "c1ccc2c(c1)sc1ccccc12", "relative growth": "inactive: 1.07"}, {"compound": "CN1C(=O)NC(=O)/C(=C\\c2ccc(O)cc2)C1=O", "relative growth": "inactive: 1.01"}, {"compound": "NC(=O)CS(=O)C(c1ccccc1)c1ccccc1", "note": "(stereo not given)", "relative growth": "inactive: 1.17"}, {"compound": "CN1CCN(C(=O)CN=[N+]=[N-])CC1", "relative growth": "inactive: 0.983"}, {"compound": "Cc1ccc2nc(CCN)[nH]c2c1", "relative growth": "inactive: 0.999"}, {"compound": "NC1(c2ccccc2F)CCCC1", "relative growth": "inactive: 1.02"}, {"compound": "C=C(C)C1C2OC(=O)C1C1(O)CC3OC34C(=O)OC2C14C", "note": "(stereo not given)", "relative growth": "inactive: 0.953"}, {"compound": "CC(=O)OC1CCC2(C)C(CCC3C2CCC2(C)C(C4=CC(=O)OC4)C(OC(C)=O)CC32O)C1", "note": "(stereo not given)", "relative growth": "inactive: 1.01"}, {"compound": "CO[C@@H]1C=C[C@@H]2[C@H]1N2CCCO", "note": "(stereo not given in full)", "relative growth": "inactive: 0.993"}, {"compound": "C1CO[C@@]2(C1)CCNC2", "relative growth": "inactive: 1.08"}, {"compound": "CCOP(=S)(OCC)Oc1ccc2c(C)c(Cl)c(=O)oc2c1", "relative growth": "inactive: 0.955"}, {"compound": "COc1ccc(OC(=O)N(C)C[C@@H]2OCc3ccccc3-c3c(n(C)c4ccccc34)C(=O)N([C@H](C)CO)C[C@@H]2C)cc1", "relative growth": "inactive: 1"}, {"compound": "O=C1C=CC(=O)C=C1", "relative growth": "inactive: 0.984"}, {"compound": "COC(=O)NC(=S)Nc1ccccc1NC(=S)NC(=O)OC", "relative growth": "inactive: 1.01"}, {"compound": "Oc1ccccc1-c1ccccc1O", "relative growth": "inactive: 0.657"}, {"compound": "O=c1cccc2n1C[C@H]1CNC[C@H]2C1", "relative growth": "inactive: 0.971"}, {"compound": "Cc1cc(C)nc(NC2=NCCN2)n1", "relative growth": "inactive: 0.997"}, {"compound": "CCCC[C@@H](C)[C@@H](OC(=O)C[C@@H](CC(=O)O)C(=O)O)[C@H](C[C@@H](C)C[C@H](O)CCCC[C@@H](O)C[C@H](O)[C@H](C)N)OC(=O)C[C@@H](CC(=O)O)C(=O)O", "relative growth": "inactive: 1.01"}, {"compound": "CC1=C2C(=COC(C)C2C)C(O)=C(C(=O)O)C1=O", "note": "(stereo not given)", "relative growth": "inactive: 0.87"}, {"compound": "CCn1nc(-c2cccnc2)nc2c(=O)n(C)c(=O)nc1-2", "relative growth": "inactive: 0.846"}, {"compound": "CC(=O)N[C@@H]1[C@H](O[C@@H]2O[C@H](C[C@@H](O)[C@H]3O[C@@H](n4ccc(=O)[nH]c4=O)[C@H](O)[C@@H]3O)[C@H](O)[C@H](O)[C@H]2NC(=O)/C=C/CCCCCCCCC(C)C)O[C@@H](CO)[C@H](O)[C@H]1O", "relative growth": "inactive: 1.03"}]}]}
